Laboratory results from PubChem BioAssay AID2546 (National Center for Advancing Translational Sciences (NCATS), 2010).
Among all 310,000 compounds or so, about 11,000 (3.5%) were called active. Inconclusive means that the source gave no clear call. Such entries were picked first, then a sample of the others. Calls follow the shape of the dose curve; as a rule, active = well fitted inhibition curve with a large enough effect; inconclusive = small, poorly fitted or top-dose-only effect, or effect the other way; inactive = flat fitted curve, though single readings scatter. Potencies of inconclusive entries are left out as doubtful fits.
% is scaled to controls: 0 for no effect and ±100 for the full control effect; potency is read from the fitted curve at half-maximal effect; tags tell the direction and shape of the fitted curve.

Assay: VP16 counterscreen qHTS for inhibitors of ROR gamma transcriptional activity;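 also: Gal4-VP16 expression switched on by copper sulfate through the metallothionein promoter; nearly all actives have a fitted effect of over 50% in size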
Settings: Drosophila S2 Gal4-VP16 UAS-luciferase, luminescence, 20 h; activity, negative = inhibition: at 53.6 µM (top of the series)
With `O=C(COC(=O)[C@H](Cc1ccccc1)N1C(=O)c2ccccc2C1=O)Nc1ccc2c(c1)OCO2` the Potency was inconclusive [inhibitor, single point].
In the case of `O=C(CSc1nnc(CNC(=O)c2ccco2)o1)Nc1nc2ccccc2s1`, the Potency was active: 10 µM.
With `CC(C)=NNC(=O)CN1C(=O)NC2NC(=O)NC21` (centres undefined) the Potency was “inactive”.
With `CCC(C(=O)OC)n1cnc2c(nnn2-c2cccc(OC)c2)c1=O` (centres undefined) the Potency was “inactive”.
With `O=[N+]([O-])c1cccc(CSc2ncnc3ccccc23)c1` the Potency was “inactive”.
With `S=C(c1ccccc1)N1CCN(C(=S)c2ccccc2)CC1` the Potency was inconclusive [activator, single point].
In the case of `N#C/C(=C\c1c[nH]c2ccccc12)C(=O)NC1CC1`, the Potency was “inactive”.
For `CCOc1ccc(NC(=O)/C(C#N)=C/c2ccc(N3CCCC3)c(C)c2)cc1`, the Potency was inconclusive [inhibitor, partial curve, poor fit].
With `CCOC(=O)N1CCC(NC(=O)C2CCN(C(=O)c3cc4sccc4n3CC)CC2)CC1` the Potency was inconclusive [inhibitor, single point].
In the case of `CCCCOC(=O)c1sc2nc(C)cc(C)c2c1N`, the Potency was inconclusive [activator, full curve, poor fit].
In the case of `CCOC(=O)C1=C(C)C/C(=N\NC(=O)c2ccccc2O)CC1`, the Potency was active: 10 µM.
For `CC(C)CC(=O)/C=C/n1c(=S)oc2ccccc21`, the Potency was active: 11.2 µM.
In the case of `CCC1(CC)N=C(c2ccccc2)C(=S)N1`, the Potency was active: 11.2 µM.
With `Cc1ccc(N=Nc2c(O)ccc3n[nH]nc23)cc1` the Potency was inconclusive [inhibitor, single point].
For `CCC(=O)N1N=C(c2c(-c3ccccc3)c3cc(Cl)ccc3[nH]c2=O)CC1c1ccco1` (centres undefined), the Potency was inconclusive [inhibitor, single point].
With `Cn1nnc(NC(=S)NC(=O)c2ccc(-c3ccc(Br)cc3)o2)n1` the Potency was active: 5.01 µM.
For `CN(C)c1nc(/C=C(\C#N)C(N)=O)c(Cl)n1-c1ccc(F)cc1`, the Potency was inconclusive [activator, single point].
For `C=CCN1C(=O)C(C)NC1=S` (centres undefined), the Potency was inconclusive [inhibitor, single point].
In the case of `CCc1cccc(C)c1NC(=S)NCc1ccc2[nH]c(C)cc2c1`, the Potency was active: 10 µM.
With `Cc1cc(C(=O)N2CCCC(N3CCN(c4ccc(F)cc4)CC3)C2)no1` (centres undefined) the Potency was “inactive”.
With `Cc1cc(N2CCN(C)CC2)nc2ccc(NC(=O)c3ccc(Br)o3)cc12` the Potency was “inactive”.
In the case of `CCOC(=O)c1cc(CC)sc1NC(=O)c1ccc(N2C(=O)CCC2=O)cc1`, the activity, negative = inhibition was inactive: -12.2% [at 0.365 µM].
In the case of `O=C(N/N=C/c1c(O)ccc2ccccc12)c1ccc(Br)o1`, the Potency was active: 2.82 µM.
In the case of `CC1(C)Cc2ccccc2/C(=C/C(=O)N2CCCCCC2)N1`, the Potency was inconclusive [inhibitor, single point].
With `Cc1nn(-c2ccccc2)c(Cl)c1C(=O)NCC(C)c1ccccc1` (centres undefined) the Potency was inconclusive [activator, single point].
With `Cn1cccc1CC(=O)NNC(=S)Nc1ccc(Cl)cc1` the Potency was inconclusive [inhibitor, single point].
For `O=C(C1CCN(S(=O)(=O)c2cccc3cccnc23)CC1)N1CCN(c2ccc(Cl)cc2)CC1`, the Potency was inconclusive [inhibitor, single point].
With `O=C(NNC(=S)Nc1cccc2ccccc12)c1cccc(Br)c1` the Potency was inconclusive [inhibitor, partial curve].
In the case of `CC(C)N(C(=O)CSc1nc2ccccc2n1Cc1ccc(F)cc1)C(C)C`, the Potency was inconclusive [inhibitor, single point].
For `CCCN(CCC)C(=O)c1ccc2nc(-c3ccc(OC)c(OC)c3)c(-c3ccc(OC)c(OC)c3)nc2c1`, the Potency was “inactive”.
With `C=CCn1c(SCC(=O)Nc2ccccc2C)nc2sc(C)c(C)c2c1=O` the Potency was active: 20 µM.
With `COc1ccc(CC(=O)Nc2ccc(-c3cn4ccc(C)cc4n3)cc2)cc1` the Potency was inconclusive [inhibitor, single point].
For `O=C(O)c1ccc2c(c1)C(=O)N([C@H](Cc1ccc(Cl)cc1)C(=O)O)C2=O`, the Potency was “inactive”.
In the case of `CCC(C)(C)C1CCc2[nH]nc(C(=O)N/N=C(\C)c3ccco3)c2C1` (centres undefined), the Potency was inconclusive [activator, partial curve, poor fit].
With `CCC(=O)C1CCCN(C(=O)c2ccc(OC3CCN(C(=O)CCOC)CC3)cc2)C1` (centres undefined) the Potency was “inactive”.
In the case of `CC(=O)c1cc(NC(=O)c2ccc([N+](=O)[O-])cc2)c(=O)oc1C`, the Potency was inconclusive [inhibitor, single point].
With `CCOc1ccccc1OCC(=O)Nc1nc2ccccc2[nH]1` the Potency was inconclusive [inhibitor, single point].
With `CCOc1ccc(-n2cc(C(=O)NCc3ccco3)c3cc(OC)c(OC)cc3c2=O)cc1` the Potency was inconclusive [inhibitor, single point].
With `O=C(CNS(=O)(=O)c1ccccc1)Nc1ccc(F)cc1F` the Potency was inconclusive [activator, single point].
For `CCOC(=O)CCCc1sc(N)nc1-c1[nH]c(=O)[nH]c1C`, the Potency was inconclusive [inhibitor, single point].
For `CCn1c(CNC(=O)c2ccc(OC)cc2)nnc1SC`, the Potency was “inactive”.
In the case of `CC1=C(C)CS(=O)N(S(=O)(=O)c2ccc(Cl)cc2)C1` (centres undefined), the Potency was active: 6.31 µM.
With `C=CCOc1ccccc1CNc1cccc(F)c1` the Potency was inconclusive [activator, single point].
For `COc1ccc(NC(=O)CSc2n[nH]c(-c3ccccn3)n2)cc1`, the Potency was inconclusive [inhibitor, single point].
For `CCCCCOC(=O)Cn1c(=O)oc2ccccc21`, the Potency was inconclusive [activator, single point].
For `CC(=O)NC1N=C(C)N(c2ccccc2)C1=O` (centres undefined), the Potency was “inactive”.
For `CCOc1ccc(N/C=C/C(=O)c2ccc(C)cc2)c([N+](=O)[O-])c1`, the Potency was inconclusive [inhibitor, partial curve].
For `COc1cc(C(=O)N/N=C/C2CC=CCC2)cc(OC)c1OC` (centres undefined), the Potency was inconclusive [activator, single point].
For `Nc1cc(S(=O)(=O)N2CCCCC2)ccc1Oc1ccccc1`, the Potency was inconclusive [inhibitor, partial curve].
For `Oc1c(CN2CCN(c3ccccn3)CC2)cc(Cl)c2cccnc12`, the Potency was inconclusive [inhibitor, partial curve].
For `CCOc1ccc(NC(=O)n2ncc3c(C)cccc32)cc1`, the Potency was active: 1.12 µM.
In the case of `Cc1c(C(=O)NN)[nH]c2ccc([N+](=O)[O-])cc12`, the Potency was inconclusive [inhibitor, single point].
For `CN(C)S(=O)(=O)c1ccc(C(=O)/C=C/c2cccnc2)cc1`, the Potency was inconclusive [inhibitor, single point].
With `CCOc1ccc(N=Cc2c(C)[nH]n(-c3nc4ccccc4[nH]3)c2=O)cc1` the Potency was inconclusive [inhibitor, single point].
With `O=C(Nc1ccc(-c2noc(-c3ccccc3F)n2)cc1)c1cccs1` the Potency was “inactive”.
In the case of `Cc1ccc(Sc2ccc(N)cn2)cc1`, the Potency was inconclusive [activator, single point].
In the case of `CSc1ccc(CN2CCC(n3nccc3NC(=O)C3CCOC3)CC2)cc1` (centres undefined), the Potency was “inactive”.
In the case of `N=C(N)Cc1ccccc1Sc1ccccc1`, the Potency was inconclusive [inhibitor, single point].
In the case of `CC(Sc1nnc(-c2ccc(C(C)(C)C)cc2)n1C)C(N)=O` (centres undefined), the Potency was inconclusive [inhibitor, single point].
With `CC(=O)N1CCCc2cc(S(=O)(=O)N3CCCC(C(=O)N4CCN(c5cc(C)ccc5C)CC4)C3)ccc21` (centres undefined) the Potency was inconclusive [inhibitor, single point].
For `Oc1ccccc1-n1c(-c2ccccc2)ccc1-c1ccccc1`, the Potency was inconclusive [inhibitor, single point].
With `O=S1(=O)N=C(N/N=C/C=C/c2ccccc2)c2ccccc21` the Potency was active: 0.631 µM.
With `Cc1nc(N)c(C#N)c(-c2cccnc2)c1-c1ccccc1` the Potency was “inactive”.
With `Cc1ccc(N(C(=O)c2ccn[nH]2)C(C(=O)NC2CCCC2)c2cccs2)cc1` (centres undefined) the Potency was “inactive”.
In the case of `Cc1ccc(N2C(=O)CC(Sc3ncn[nH]3)C2=O)cc1` (centres undefined), the Potency was inconclusive [inhibitor, single point].
In the case of `CC(C)c1ccc(N(CC(=O)N2CCOCC2)S(C)(=O)=O)cc1`, the Potency was “inactive”.
With `COCCCNC(=S)NNC(=O)c1ccoc1C` the Potency was inconclusive [inhibitor, single point].
For `CCOC(=O)c1cnc2ccc(OCC)cc2c1N(C)Cc1ccccc1`, the Potency was inconclusive [inhibitor, single point].
In the case of `O=C(Nc1cccc(S(=O)(=O)Nc2ccc(Cl)cc2)c1)c1ccc(Cl)nc1`, the Potency was active: 3.16 µM.
In the case of `Cc1nc(CS(=O)(=O)c2ccccc2)cc(Sc2ccc(Cl)cc2)n1`, the Potency was inconclusive [activator, single point].
For `CC(=O)Nc1nc(-c2ccc3ccccc3c2)cs1`, the Potency was inconclusive [activator, single point].
For `Cc1ccc(NC(=O)CCCc2c[nH]c3ccccc23)nc1`, the Potency was inconclusive [activator, partial curve].
With `O=C(Nc1cccc(-c2ccc(N3CCCCC3)nn2)c1)C(F)(F)F` the Potency was active: 10 µM.
For `Cc1ccc2nc(-c3ccc(NC(=S)NC(=O)C(C)C)cc3)sc2c1`, the Potency was active: 2.82 µM.
